Reference: PubChem BioAssay AID1508642 (National Center for Advancing Translational Sciences (NCATS), 2021)
The campaign covered roughly 43,000 compounds. About 200 (0.47%) were called active. The inconclusive results got no clear call from the source; some entries with a clear call stand among them for comparison. Calls come from the whole dose curve; as a rule, active = well fitted cell-killing curve with a large enough effect; inconclusive = small, poorly fitted or top-dose-only effect, or effect the other way; inactive = flat fitted curve, though single readings scatter. Where the call is inconclusive, the potency comes from a doubtful curve fit.

Assay: Cell viability qHTS assay in S16 Pmp22-F2sN cells; note: nearly all actives have a fitted effect of over 65% in size
Conditions: S16 Pmp22-F2sN Schwann cells (luciferase reporters placed in the Pmp22 gene) viability, CellTiter-Glo, 24 h; activity change, negative = cytotoxicity: at 57.5 µM (top of the series)
How it was run: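 Luminescence from CellTiter-Glo, read by CCD camera after a 15 min room-temperature incubation, served as the viability signal. Reporter Schwann cells (S16 Pmp22-F2sN) had been treated with pin-transferred compounds for 24 h at 37C.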
% is set by controls: 0 for no effect and ±100 for the full control effect; potency is the fitted concentration of half-maximal effect; tags give direction and shape of the fitted curve.

Row | Compound | Potency | activity change, negative = cytotoxicity
1 | Cc1ccc(S(=O)(=O)c2nc(-c3ccco3)oc2SCC(=O)c2ccc(Cl)cc2)cc1 | inconclusive: 39.8 µM [cytotoxic, single point] | –
2 | Cc1ccc(C(C)C)c(OCc2ccc(C(=O)Nc3ccc(S(N)(=O)=O)cc3C)o2)c1 | inconclusive: 31.6 µM [cytotoxic, single point] | –
3 | CCOc1ccc(Nc2cc(C)c(C#N)c3nc4ccccc4n23)cc1 | inconclusive: 6.31 µM [rising, single point] | –
4 | CCn1cc2nc(SCC(=O)Nc3cccc(Cl)c3C)n(Cc3ccc(Cl)cc3)c(=O)c2n1 | inconclusive: 10 µM [rising, partial curve, poor fit] | –
5 | COc1ccccc1CCNC(=O)C1CCN(c2nc3ccccc3nc2C(F)(F)F)CC1 | inconclusive: 39.8 µM [rising, partial curve, poor fit] | –
6 | Cc1ccc(N(CC(=O)NCc2ccc(OC(C)C)cc2)S(=O)(=O)N(C)C)cc1 | inconclusive: 1.26 µM [rising, full curve, poor fit] | –
7 | Cc1cccc(NC(=O)Cn2c(=O)oc3cc(S(=O)(=O)N4CCCCCC4)ccc32)c1 | inconclusive: 12.6 µM [cytotoxic, partial curve, poor fit] | –
8 | COc1ccc(-c2noc(CSc3nnc(-c4ccncc4)n3-c3ccc(OC)cc3)n2)cc1 | inconclusive: 5.62 µM [cytotoxic, full curve] | –
9 | COc1ccc(CNC(=O)CCS(=O)(=O)c2cc3c4c(c2)CCN4C(=O)CC3)cc1 | inconclusive: 39.8 µM [cytotoxic, single point] | –
10 | CCn1c(SCC(=O)Nc2cc(Cl)ccc2OC)nc2c([nH]c3ccccc32)c1=O | inconclusive: 0.0251 µM [rising, full curve, poor fit] | –
11 | CCOC(=O)c1cccc(NC(=O)NC2COc3ccccc3C2)c1 (configuration not stated) | inconclusive: 39.8 µM [cytotoxic, partial curve, poor fit] | –
12 | Cc1ccc(NC(=O)NCc2c(-n3cccc3)sc3c2CCCC3)c(Cl)c1 | inconclusive: 31.6 µM [cytotoxic, single point] | –
13 | Cc1ccccc1CN1C(=O)c2ccccc2Sc2ccc(C(=O)NCCCN3CCOCC3)cc21 | inconclusive: 39.8 µM [cytotoxic, single point] | –
14 | Fc1ccc(-n2ncc3c(NCCCc4ccccc4)ncnc32)cc1 | inconclusive: 28.2 µM [cytotoxic, single point] | –
15 | Cc1ccn2c(=O)c(NC(=O)c3cccc([N+](=O)[O-])c3C)c(C)nc2c1 | inconclusive: 12.6 µM [cytotoxic, partial curve, poor fit] | –
16 | O=c1cc(-c2ccccc2)nc(SCc2nc(-c3cccc(C(F)(F)F)c3)no2)[nH]1 | – | inactive: -1.8%
17 | Cc1cccc(NC(=O)c2cc3c(C)nn(-c4ccccc4)c3s2)c1 | inconclusive: 39.8 µM [cytotoxic, partial curve, poor fit] | –
18 | CCCCN(c1ccccc1)S(=O)(=O)c1cc2c3c(c1)C(C)C(=O)N3CCC2 (configuration not stated) | inconclusive: 31.6 µM [cytotoxic, single point] | –
19 | Cc1ccc(C2=Nc3ccccc3N(CC(=O)NCc3ccc(Cl)cc3)C(=O)C2)cc1C | inconclusive: 39.8 µM [cytotoxic, single point] | –

Row | Compound | Potency | activity change, negative = cytotoxicity
20 | Cc1cccc(CSc2nc3cccnc3n2Cc2ccc(C(=O)NCc3cccs3)cc2)c1 | inconclusive: 28.2 µM [cytotoxic, single point] | –
21 | COc1cc(OC)cc(C(=O)Nc2ccc(S(=O)(=O)N3CCCCC3c3cccnc3)cc2)c1 (configuration not stated) | inconclusive: 14.1 µM [cytotoxic, single point] | –
22 | CCCCn1cc(S(=O)(=O)c2ccc(CC)cc2)c(=O)c2cc(F)c(N3CCCC(C)C3)cc21 (configuration not stated) | inconclusive: 6.31 µM [cytotoxic, full curve, poor fit] | –
23 | COc1ccccc1CCNC(=O)c1ccc(NC(=O)N2CC(C)Sc3ccccc32)cc1 (configuration not stated) | inconclusive: 22.4 µM [cytotoxic, partial curve, poor fit] | –
24 | Cc1ccc(C(=O)CSc2nc3cc(C(=O)NC4CCCC4)ccc3c(=O)n2CC2CCCO2)cc1 (configuration not stated) | inconclusive: 8.91 µM [rising, partial curve] | –
25 | CCOc1ccccc1C1CC(=O)NC(C)=C1C(=O)OC1CCCCCC1 (configuration not stated) | inconclusive: 39.8 µM [rising, partial curve, poor fit] | –
26 | Cc1cccc(Oc2nc3ccccn3c(=O)c2/C=C(\C#N)c2nc3ccccc3s2)c1C | inconclusive: 31.6 µM [cytotoxic, single point] | –
27 | O=C(Cn1ncc2c([nH]c3ccccc32)c1=O)Nc1cc(F)ccc1F | inconclusive: 39.8 µM [cytotoxic, single point] | –
28 | Cc1cc(C)c(S(=O)(=O)Nc2cc(-c3cn4ccccc4n3)ccc2C)cc1C | inconclusive: 28.2 µM [cytotoxic, partial curve, poor fit] | –
29 | CCN1CCN(C(=O)c2ccc3c(c2)N(Cc2ccc(Cl)cc2)C(=O)c2ccccc2S3(=O)=O)CC1 | inconclusive: 0.199 µM [rising, full curve, poor fit] | –
30 | COc1c(Cl)cc(C(=O)Nc2cccc(-c3nc4ccccc4[nH]3)c2)cc1Cl | – | inactive: 5.52%
31 | CCc1ccccc1NC(=O)Nc1cc(C(=O)NCc2ccc(C(C)C)cc2)ccc1N1CCCC1 | inconclusive: 28.2 µM [cytotoxic, single point] | –
32 | CCn1c(=O)c2cc(C(=O)N3CCN(c4cccc(Cl)c4)CC3)sc2c2ccccc21 | inconclusive: 39.8 µM [rising, partial curve, poor fit] | –
33 | COc1cccc(N2CCN(C(=O)c3cccc(NC(=O)c4nsc5ccccc45)c3)CC2)c1 | inconclusive: 25.1 µM [cytotoxic, single point] | –
34 | COc1ccc(CCNC(=O)CSc2ncc3c(n2)-c2cc(Cl)ccc2N(Cc2ccccc2)S3(=O)=O)cc1OC | inconclusive: 39.8 µM [cytotoxic, single point] | –
35 | CCOc1ccc(NC(=O)CSc2nccn2-c2cccc(C)c2C)cc1 | inconclusive: 0.158 µM [rising, full curve, poor fit] | –
36 | CCOc1ccccc1CNC(=O)c1cc2c(=O)n(Cc3ccccc3)ccc2nc1C | inconclusive: 1.26 µM [cytotoxic, partial curve, poor fit] | –
37 | CCCCn1c2ccc(F)cc2c2nnc(SCCN3CCCCC3)nc21 | inconclusive: 39.8 µM [cytotoxic, partial curve, poor fit] | –
38 | COc1ccc(NC(=O)c2ccc3c(=O)n4nc(Nc5cc(C)ccc5C)sc4nc3c2)cc1 | inconclusive: 35.5 µM [cytotoxic, single point] | –

Row | Compound | Potency | activity change, negative = cytotoxicity
39 | Cc1ccc(Nc2nnc(-c3ccc(C)c(S(=O)(=O)N4CCN(C)CC4)c3)c3ccccc23)c(C)c1 | inconclusive: 22.4 µM [cytotoxic, single point] | –
40 | O=C(CCCn1c(=O)c2cccn2c2ccc(F)cc21)NCCc1ccccc1 | inconclusive: 39.8 µM [cytotoxic, partial curve, poor fit] | –
41 | CCc1nnc(SCC(=O)N(C)c2ccccc2)c2cc3sccc3n12 | inconclusive: 3.55 µM [rising, single point] | –
42 | CCc1ccc(Oc2nc3c(C)cccn3c(=O)c2/C=C(\C#N)c2nc3ccccc3[nH]2)cc1 | – | inactive: 13.6%
43 | CCOC(=O)c1ccc(N2C(=O)c3n[nH]c(-c4cccs4)c3C2c2ccc(C(C)C)cc2)cc1 (configuration not stated) | inconclusive: 39.8 µM [cytotoxic, single point] | –
44 | Cc1ccc2c(c1)c1c(c(=O)n(-c3ccccc3C)c(=O)n1CC(=O)NCc1ccccc1)n2C | inconclusive: 6.31 µM [rising, full curve, poor fit] | –
45 | COc1ccccc1-c1cc(C(F)(F)F)nc(S(=O)(=O)CCCC(=O)Nc2cc(OC)c(OC)c(OC)c2)n1 | – | inactive: 8.19%
46 | Cc1ccc(OCCCn2c(CCNC(=O)C3CCCCC3)nc3ccccc32)c(C)c1 | inconclusive: 17.8 µM [rising, partial curve, poor fit] | –
47 | CCS(=O)(=O)c1ncc(Cl)c(C(=O)N2CCN(c3cccc(Cl)c3)CC2)n1 | active: 4.47 µM | –
48 | COc1ccccc1Cn1ccn(Cc2c(F)cccc2Cl)c(=O)c1=O | inconclusive: 35.5 µM [cytotoxic, single point] | –
49 | CCOC(=O)c1c(-c2ccccc2)csc1NC(=O)c1nc(S(=O)(=O)CC)ncc1Cl | active: 11.2 µM | –
50 | CCC(=O)Nc1ccc(S(=O)(=O)NCc2ccc3c(c2)CCN3C(=O)c2ccc(C)cc2)cc1 | inconclusive: 10 µM [cytotoxic, partial curve] | –
51 | COc1ccc(C2=CC(c3ccccc3F)n3ncc(C(=O)Nc4ccc(C)cc4)c3N2)cc1 (configuration not stated) | – | inactive: -13.7%
52 | CC(=O)c1ccc(NC(=O)Nc2nnc(N3CCCC(C)C3)s2)cc1 (configuration not stated) | inconclusive: 11.2 µM [cytotoxic, partial curve] | –
53 | Cc1cccc(-c2c3c(=O)n(C)c(=O)n(C)c3cn2-c2cc(N)c(Cl)cc2Cl)c1 | inconclusive: 35.5 µM [cytotoxic, single point] | –
54 | CCOC(=O)N1CCc2c(sc(NCc3ccc(OC)c(OC)c3OC)c2C(=O)Nc2ccc(OC)cc2OC)C1 | – | inactive: 0.0556%
55 | CCOC(=O)c1cc(-c2ccccc2)n(CCC(=O)Nc2ccc(Cl)c(C(F)(F)F)c2)c1C | inconclusive: 39.8 µM [cytotoxic, single point] | –
56 | COc1ccc(CCNC(=O)c2c(C)nn(-c3ccc(F)cc3)c2-n2cccc2)cc1OC | – | inactive: -13%
57 | CCc1ccc(CNC(=O)c2cc(-c3ccc(Br)s3)nc3ccccc23)cc1 | – | inactive: -0.439%
